What was measured:
Assay in all cases: flow cytometry, S-HBs-transfected 293-F cells
[1] = target: T1, consensus S-HBs protein of HBV genotype C (ConsHBAg_C) (hepatitis B virus genotype C (consensus))
T1 construct: also called genotype C S-HBs

[2] = target: T2, consensus S-HBs protein of HBV genotype B (ConsHBAg_B) (hepatitis B virus genotype B (consensus))
T2 construct: also called genotype B S-HBs

[3] = target: T3, consensus S-HBs protein of HBV genotype A (ConsHBAg_A) (hepatitis B virus genotype A (consensus))
T3 construct: also called genotype A S-HBs

[4] = target: T4, consensus S-HBs protein of HBV genotype F (ConsHBAg_F) (hepatitis B virus genotype F (consensus))
T4 construct: also called genotype F S-HBs

[5] = target: T5, consensus S-HBs protein of HBV genotype H (ConsHBAg_H) (hepatitis B virus genotype H (consensus))
T5 construct: also called genotype H S-HBs

[6] = target: T6, consensus S-HBs protein of HBV genotype G (ConsHBAg_G) (hepatitis B virus genotype G (consensus))
T6 construct: also called genotype G S-HBs

[7] = target: T7, consensus S-HBs protein of HBV genotype D (ConsHBAg_D) (hepatitis B virus genotype D (consensus))
T7 construct: also called genotype D S-HBs; ConsD S-HBs

B1: Bv6.172 (antibody)
heavy: EVQLVQSGAAVRKPGESLRISCQASGFSFTNYWITWVRQRPGKGLEWMGRIDTRDSYTNYSPSFQGHVTISIDRSINTAYLQWSSLKASDTAMYYCARLSTTYPLNYYGMDVWGQGTTVTVSSASTKGPSVFPLAPSSKSTSGGTAALGCLVKDYFPEPVTVSWNSGALTSGVHTFPAVLQSSGLYSLSSVVTVPSSSLGTQTYICNVNHKPSNTKVDKRV[human IgG1 Fc not spelt out]
light: QSVLTQPPSVSGTPGQRVTISCTGSSSNIGANYDVNWYQQLPGTAPKVLIYGNTNRPSGVPDRFSGSKSGTSASLAITGLQAEDEADYYCQSYDTSLSGWVFGGGTKLTVLGQPKAAPSVTLFPPSSEELQANKATLVCLISDFYPGAVTVAWKADSSPVKAGVETTTPSKQSNNKYAASSYLSLTPEQWKSHRSYSCQVTHEGSTVEKTVAPTECS
- % of bound S-HBs-expressing cells [1]: 76%
- % of bound S-HBs-expressing cells [2]: 71%
- % of bound S-HBs-expressing cells [3]: 83%
- % of bound S-HBs-expressing cells [4]: 72%
- % of bound S-HBs-expressing cells [5]: 79%
- % of bound S-HBs-expressing cells [6]: 82%
- % of bound S-HBs-expressing cells [7]: 78%

— patent publication US20230340081A1 (Hoffmann-La Roche, published 2023)
